In US20180185510A1, “ANTIBODY DRUG CONJUGATES OF KINESIN SPINDEL PROTEIN (KSP) INHIBITORS WITH ANTI-B7H3-ANTIBODIES” (BAYER PHARMA AKTIENGESELLSCHAFT, priority 2015, published 2018):

Tested on: Raji: human Burkitt's lymphoma cells
Test: CTG assay, cytotoxic effects of the anti-B7H3 ADCs, Raji
Format: cell-based
Settings: growth inhibition vs day 0, 72 h incubation, B7H3-negative cells
Description: The analysis of the cytotoxic effects of the anti-B7H3 ADCs was carried out with various cell lines:
The cells were cultivated by the standard method as stated by the American Tissue Culture Collection (ATCC) for the cell lines in question.
The cells were cultivated according to the standard method using the growth media listed under C-1. […] The cells were then incubated in an incubator at 37° C. and 5% carbon dioxide. In a parallel plate, the cell vitality was determined at the start of the drug treatment (day 0) using the Cell Titer Glow (CTG) Luminescent Cell Viability Assay (Promega #G7573 and #G7571). To this end, 100 μl of the substrate were added per cell batch, the plates were then covered with aluminium foil, shaken on the plate shaker at 180 rpm for 2 minutes, allowed to stand on the laboratory bench for 8 minutes and then measured using a luminometer (Victor X2, Perkin Elmer). The substrate detects the ATP content in the living cells, generating a luminescence signal the height of which is directly proportional to the vitality of the cells. […] From the measured data, the IC50 of the growth inhibition in comparison to day 0 was calculated using the DRC (dose response curve) analysis spreadsheets with a 4-parameter fit. […]

B1: 194L1 (conjugate)
heavy: QVKLQQSGAELVKPGASVKLSCKASGYTFTNYDINWVRQRPEQGLEWIGWIFPGDGSTQYNEKFKGKATLTTDTSSSTAYMQLSRLTSEDSAVYFCARQTTATWFAYWGQGTTVTVSS[omitted - human IgG1 constant region]
light: DIELTQSPTTLSVTPGDRVSLSCRASQSISDYLHWYQQKSHESPRLLIKYASQSISGIPSRFSGSGSGSDFTLSINSVEPEDVGVYYCQNGHSFPLTFGAGTKLELKRTVAAPSVFIFPPSDEQLKSGTASVVCLLNNFYPREAKVQWKVDNALQSGNSQESVTEQDSKDSTYSLSSTLTLSKADYEKHKVYACEVTHQGLSSPVTKSFNRGEC
With B1 the IC50 was > 300 nM.

B2: Example 274L1 (conjugate)
heavy: QVKLQQSGAELVKPGASVKLSCKASGYTFTNYDINWVRQRPEQGLEWIGWIFPGDGSTQYNEKFKGKATLTTDTSSSTAYMQLSRLTSEDSAVYFCARQTTATWFAYWGQGTTVTVSS[omitted - human IgG1 constant region]
light: DIELTQSPTTLSVTPGDRVSLSCRASQSISDYLHWYQQKSHESPRLLIKYASQSISGIPSRFSGSGSGSDFTLSINSVEPEDVGVYYCQNGHSFPLTFGAGTKLELKRTVAAPSVFIFPPSDEQLKSGTASVVCLLNNFYPREAKVQWKVDNALQSGNSQESVTEQDSKDSTYSLSSTLTLSKADYEKHKVYACEVTHQGLSSPVTKSFNRGEC
With B2 the IC50 was 115 nM.
